Reference: publication PMC7014971 (Nature, 2019)

Target: the molecule itself
Assay: cryo-EM structure

B1: full-length human BRAF S365A (natural protein)
chain: not shown
stoichiometry N: 2
